Test results reported in the supplement of paper PMC10126150.
Sequences with one replicate were seen in a single cluster, so their values are uncertain.

Tested on: ATP
Assay: switch fluorescence ratio, 500 uM ATP over buffer (Cy3 cluster intensity, sum of 5 cycles each) (fold (ratio)); higher = stronger signal-on switching upon ATP binding; sequences stand for … in TCGTCGGCAGCGTCAGATGTGTATAAGAGACAGTTTTTTTTTTTTTTTTTTTTTTTTT…TC
Conditions: aptamer strand: ATP DNA aptamer (quencher-CACCTGGGGGAGTATTGCGGAGGAAGG + anchor), 100 nM annealed; ATP concentration: 500 uM; one replicate
Procedure, shortened: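 Values give the fluorescence ratio for each switch-domain sequence, averaged from per-cluster ratios of summed target-cycle to summed buffer-cycle Cy3 intensity. The Cy3-labelled switching-strand clusters sat on a modified Illumina MiSeq flow-cell, were annealed to 100 nM quencher-labelled ATP aptamer, and were imaged in selection buffer, then after 15 min with 500 uM ATP at 22 °C. Five cycles ran with NaOH stripping and re-annealing between them, and clusters outside 100-1000 RFU were excluded.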
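Further: ATP exposure 15 min at 22 °C before imaging.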

Sequence | switch fluorescence ratio
CGCGTATTGG | 1.06
GCGAATG | 1.03
GCGAGAAACG | 1.02
TTGGTAAGCT | 1
AGTGACTGTT | 0.954
CTTTTCCCGA | 1.02
AGTTTTACTC | 1.11
TACTAAGACG | 1.08
TCGGTATGCC | 0.958
CTATTCTGTA | 0.97
TAAAGACGTT | 0.997
GTTGCGTGCA | 1.04
TTGTGGCAAA | 0.993
CCATTTATGC | 1.03
AGGTTATTTC | 0.989
CTCGTATCTG | 1.05
AAATGGAGAA | 1.05
TCCGAGATAA | 1.03
CAGCATGGTG | 1.05
GAGCGTAATA | 1.37
CCATGGGATT | 0.979
CGCCACGGGG | 1.04
CACAGTAGGA | 1.12

Sequence | switch fluorescence ratio
GGTATCGTC | 0.979
AGCAGTGGTC | 1.05
GTTGGCCGCT | 1.01
TAGGAGCACA | 1.17
ATTCGGTAAA | 1.02
CGGAGCTGGT | 1.36
ATCTCGAGTA | 1.01
TATTTAAACT | 1.02
TTTGATAGGT | 0.975
ATGATGGGA | 1.01
ATCAACCAGC | 0.992
GTCGCACTTA | 0.987
CGTGACGGCA | 1
CGTGCCATGA | 0.993
GCGCCGTTGT | 1.02
GCGTGACTTA | 0.996
CGAGAACTCG | 0.94
ACATCTCAGA | 0.983
AGGCGCGCTC | 1
TGCGTGAGTC | 1.02
TCACGGGAA | 1.06
AGACAGGGTT | 1.05
GCCTGCACGG | 1.02

Sequence | switch fluorescence ratio
CGCTATCCCT | 1.28
TTTTTTCAGT | 1.01
TTAGGTACAC | 1.03
CTGTGGAGTG | 0.999
GCGATATCT | 1.12
ATTGATGTCT | 0.988
GGAACTAGGT | 0.959
ACCGGGTAGA | 1
TAAGTAGATC | 0.941
GTACGTAGAC | 1.26
ATCCTGTCGG | 0.967
TGACGCTTGG | 1.04
TTCCGGGGCA | 1.61
ACCTTGTAAG | 1.01
CTCGGTAGGA | 0.945
GATTGGGAAA | 0.934
GAGTAAGCG | 0.967
ATCCTTCGTG | 1.29
AAAGGGGATT | 1.01
AGCTGACGGC | 1.02
CCGAGCCTTA | 1.3
GGTACGTCCA | 1.05
ATTTAGGTCC | 1.03

Sequence | switch fluorescence ratio
ATCTTTGTAT | 1.02
AGCCGTCGGA | 1
CTCGGTAAGA | 1.05
CCGATCATAG | 1.88
CTGGAGGATT | 1.04
TCGCCGTTGC | 1.15
ACGCAGATCT | 1.05
GCAGTTCTCG | 1.07
TATCCCGTTG | 1.03
GCAAAGGCAC | 1.03
CTTGAAG | 0.981
TGACAAATTT | 0.987
AACTAGTTT | 0.969
CGACTCTAA | 1.1
GAAATCCGCA | 2.08
ATCCCCGTCG | 1
GCATACCTGA | 1.06
TAGCAGTGG | 1.08
TTGGACCAC | 1.01
TTGTTTCTAA | 1.03
TGCACCCAAC | 2.02
TGTGAGTACC | 0.988
GCGGCCCATC | 1.01

Sequence | switch fluorescence ratio
GATTTTGATG | 1.03
CTTTCTCGAG | 1.01
CAATGGTTAT | 1.01
CTGTATCACT | 1.01
AGGTTTGGAG | 1.01
TGACTCACAC | 1.52
TCGAGAAGGC | 1.04
TATCTCGATC | 1.02
GACCCTGAAC | 1.46
TTCCAGTGGA | 1.03
TTGGTTAGGC | 0.983
TTGAAAGCAG | 1.71
TGAAAAGTAG | 0.961
GCACATTTTA | 0.966
CCGCAGCACG | 2.32
ATTCGCAGAA | 1.04
GGAAGCCGTC | 1.02
ACGCTAGGAA | 1.16
TCATCCGGAG | 2.74
GCTGGCCTTG | 1.01
GCTGAGGCAC | 0.99
GGTTTTGAAA | 0.977
ATGTTACGGT | 1.07

Sequence | switch fluorescence ratio
TCCAATCTTG | 1.03
ATGTTGTGCG | 0.976
GTAGGCAGCC | 0.967
ATTCCGAAGG | 1.02
GAGGGTGGCA | 1.07
GGCAGAGAGG | 0.976
TGGTACGAAT | 0.996
AATGGGAATC | 0.973
CCTGAGGGTA | 1.01
ACGATTGCCC | 1.03
TACAAATTTA | 1.03
AAGGGAACCA | 1.01
CGGAGTAGT | 1.23
CTAAGCCAAG | 0.991
GCGCGCTAAT | 0.981
CAATGTCTGA | 0.99
TCCACTGATG | 1.01
ATAAGTTCAC | 1.03
GTATTGTAGG | 0.994
TTTTAGATTC | 0.999
AGATGCCGTG | 1.02
GCCGGTGCCT | 0.966
GCTCGAATTT | 1.09

Sequence | switch fluorescence ratio
TCCTTTGACA | 1.08
TGGCCCAGCT | 0.979
TGTCGCCCGC | 1.03
GAGGGTAGAC | 1.04
GCGGAGTGCT | 1.05
CCTTCGATAG | 3.67
CCTTATTGT | 1.01
CCAGCTTGTC | 1.11
TGCTAATTAG | 1.01
GCTAGGAAA | 0.969
GAGGTAGGGT | 0.962
GGAAAGCACC | 1.11
ATTACAGTTT | 0.992
CTTAATGGCG | 0.989
CTCCTAATCG | 1.13
TTCCGCCCCC | 0.997
CGGCGAAATG | 1.01
AGTCATAGTT | 0.966
TATTAATATC | 1.02
